# According to the BET-seq Pho4 binding data (Le et al. 2018):
# Some of the results follow. Values were computed here from the reads of four pooled replicates and scatter widely.
# Target: T1, Pho4 (S. cerevisiae) (UniProt P07270)
# T1 sequence: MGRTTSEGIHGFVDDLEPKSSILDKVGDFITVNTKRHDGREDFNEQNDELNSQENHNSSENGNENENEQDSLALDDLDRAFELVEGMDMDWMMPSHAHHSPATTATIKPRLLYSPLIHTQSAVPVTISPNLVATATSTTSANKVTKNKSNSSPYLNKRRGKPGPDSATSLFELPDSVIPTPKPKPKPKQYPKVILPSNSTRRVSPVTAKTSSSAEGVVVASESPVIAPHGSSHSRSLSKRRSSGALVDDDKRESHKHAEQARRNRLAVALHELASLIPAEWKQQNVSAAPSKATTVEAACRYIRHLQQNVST
# Assay: relative binding free energy (BET-seq); higher = weaker binding
# Conditions: reference: library average
row,Sequence,relative binding free energy
1,AATTTCACGTGTAGCG,0.23 kcal/mol
2,GGTGTCACGTGTCAGT,0.13 kcal/mol
3,GGGATCACGTGTGAAT,0.27 kcal/mol
4,GCTGTCACGTGGGGAC,0.04 kcal/mol
5,CGTGGCACGTGGTAGA,-0.13 kcal/mol
6,ATAGGCACGTGGGAGC,-0.23 kcal/mol
7,TTGGGCACGTGTTGAT,-0.06 kcal/mol
8,GATGTCACGTGGTGTT,0.14 kcal/mol
9,AGGTTCACGTGTGAAG,0.27 kcal/mol
10,TGGTTCACGTGATTAA,0.39 kcal/mol
11,AGATTCACGTGGGTGT,0.19 kcal/mol
12,GTAAACACGTGTAGCT,0.27 kcal/mol
13,TAGAGCACGTGGAGTT,0.14 kcal/mol
14,TATTACACGTGTACGG,0.11 kcal/mol
15,GGGCACACGTGAGGTG,0.25 kcal/mol
16,GCTGTCACGTGGTAGG,0.05 kcal/mol
17,TAGTGCACGTGCCGGT,-0.15 kcal/mol
18,GGTAACACGTGTGGAC,0.08 kcal/mol
19,TTTGCCACGTGTTTAG,0.01 kcal/mol
20,ATTGACACGTGCAGTT,-0.11 kcal/mol
21,AGTTGCACGTGGATCT,0.06 kcal/mol
22,GGATTCACGTGAGTGG,0.43 kcal/mol
23,TTTATCACGTGGGTTG,0.05 kcal/mol

row,Sequence,relative binding free energy
1,ATGGTCACGTGTGTAG,0.08 kcal/mol
2,TTTAGCACGTGGAACT,0.18 kcal/mol
3,TTCGTCACGTGGGTTC,0.04 kcal/mol
4,CGAGGCACGTGGTAGG,-0.17 kcal/mol
5,TAGGCCACGTGGAGTT,-0.09 kcal/mol
6,TGAGTCACGTGATGCG,0.18 kcal/mol
7,GGGTGCACGTGCGTGA,-0.06 kcal/mol
8,ATTGGCACGTGGTACG,-0.23 kcal/mol
9,GTTTTCACGTGGAATA,0.16 kcal/mol
10,TTGAACACGTGCTTTG,0.09 kcal/mol
11,GGCTCCACGTGAGAGG,0.39 kcal/mol
12,GGATGCACGTGTGTCG,0.2 kcal/mol
13,TTCTGCACGTGGGCAT,0.03 kcal/mol
14,TAGGACACGTGGAATT,0.12 kcal/mol
15,CGGTGCACGTGGATGT,-0.12 kcal/mol
16,ATAGTCACGTGTTTGG,0.12 kcal/mol
17,TGGGGCACGTGAATCG,0.09 kcal/mol
18,GGTGGCACGTGGAGGG,-0.05 kcal/mol
19,AAGTCCACGTGTGTTG,0.02 kcal/mol
20,GTGGCCACGTGGTTGT,-0.07 kcal/mol
21,TAATACACGTGGGCGG,-0.11 kcal/mol
22,CGAGGCACGTGTGATT,0.03 kcal/mol
23,TTTGACACGTGTATTC,0.01 kcal/mol

row,Sequence,relative binding free energy
1,CTTAACACGTGATTGG,0.09 kcal/mol
2,GGGGACACGTGTATAT,0.11 kcal/mol
3,GGTCACACGTGTGGCG,0.09 kcal/mol
4,TGGATCACGTGGATAG,0.17 kcal/mol
5,TTGCTCACGTGAGTTG,0.36 kcal/mol
6,GGTTTCACGTGTCAGG,0.37 kcal/mol
7,TATAGCACGTGGAGTG,-0.22 kcal/mol
8,GCTGTCACGTGGCGGG,-0.06 kcal/mol
9,CTATTCACGTGTGGTT,0.17 kcal/mol
10,ATCGACACGTGTTTGT,0.07 kcal/mol
11,TTTTGCACGTGACGAT,0.05 kcal/mol
12,CGAGTCACGTGGGTTT,0.05 kcal/mol
13,TTTATCACGTGTGATA,0.19 kcal/mol
14,AGTGGCACGTGCGTGG,-0.19 kcal/mol
15,GTTTCCACGTGGCGTT,0.13 kcal/mol
16,AGGTGCACGTGGATTG,0.08 kcal/mol
17,TGGATCACGTGAGGGA,0.27 kcal/mol
18,AATGGCACGTGGAAGG,-0.17 kcal/mol
19,TTGAGCACGTGTTTGG,-0.01 kcal/mol
20,GGTTGCACGTGGCAGC,-0.07 kcal/mol
21,CATATCACGTGGTGTG,0.01 kcal/mol
22,CTGAGCACGTGGGGAA,-0.14 kcal/mol
23,TTTAACACGTGTACTG,0.1 kcal/mol

row,Sequence,relative binding free energy
1,TGTCGCACGTGTTAAT,-0.08 kcal/mol
2,AATTTCACGTGTAGGG,0.2 kcal/mol
3,GCCGGCACGTGGGTGG,-0.26 kcal/mol
4,TGAGGCACGTGGTACT,-0.1 kcal/mol
5,GGATGCACGTGGTGAT,0.01 kcal/mol
6,GTGTGCACGTGGTGTG,-0.1 kcal/mol
7,GTTAGCACGTGGTGTG,-0.11 kcal/mol
8,TTAATCACGTGGTTTC,0.03 kcal/mol
9,AGCCGCACGTGGGAGG,-0.22 kcal/mol
10,ATGGGCACGTGTGATC,-0.09 kcal/mol
11,GTGGGCACGTGAAGAG,0.16 kcal/mol
12,AGTGACACGTGATATG,0.07 kcal/mol
13,GTGTCCACGTGTGGTC,0.17 kcal/mol
14,ATGAGCACGTGCGTGG,-0.27 kcal/mol
15,GTGTTCACGTGGGTAC,0.12 kcal/mol
16,TTTCGCACGTGTGATT,0.1 kcal/mol
17,TTTTGCACGTGGGACT,-0.03 kcal/mol
18,TGAAACACGTGGGCTG,-0.02 kcal/mol
19,GGAAGCACGTGGGAGA,-0.11 kcal/mol
20,TTAGGCACGTGACTGT,-0.08 kcal/mol
21,TGCATCACGTGATTGT,0.1 kcal/mol
22,AGCATCACGTGTTGTG,0.1 kcal/mol
23,TTTTGCACGTGAATTA,0.13 kcal/mol

row,Sequence,relative binding free energy
1,TATTACACGTGTAGCT,0.07 kcal/mol
2,GTGCGCACGTGGTTTT,-0.13 kcal/mol
3,AGTTGCACGTGCTTTG,-0.01 kcal/mol
4,TTGAGCACGTGGTTTC,0 kcal/mol
5,TAGTGCACGTGGAGCG,0.02 kcal/mol
6,CATGTCACGTGGTTAA,0.1 kcal/mol
7,CGTGTCACGTGTAGCT,0.1 kcal/mol
8,TTGTACACGTGGTATC,0.1 kcal/mol
9,TTCGGCACGTGAGTGG,0.09 kcal/mol
10,TGTGCCACGTGTGATG,0.07 kcal/mol
11,AGTCTCACGTGGAGAG,0.33 kcal/mol
12,TACATCACGTGTGTTG,0.13 kcal/mol
13,TTTTACACGTGGAGTA,0.21 kcal/mol
14,TGGCGCACGTGGATAG,-0.03 kcal/mol
15,TGTAGCACGTGGCAAG,-0.22 kcal/mol
16,AGCGGCACGTGAAGTG,0.18 kcal/mol
17,TTGTGCACGTGGTGGT,-0.07 kcal/mol
18,AGGGTCACGTGGGCTA,0 kcal/mol
19,GTTACCACGTGTTTTA,0.14 kcal/mol
20,AGTATCACGTGGTTAA,0.08 kcal/mol
21,AGGAACACGTGTTCGT,0.01 kcal/mol
22,AGGGGCACGTGGTCTG,-0.21 kcal/mol
23,CTTCGCACGTGGGGGG,-0.22 kcal/mol
